Data: ChEMBL document CHEMBL4888484, “Replenishing the malaria drug discovery pipeline: Screening and hit evaluation of the MMV Hit Generation Library 1 (HGL1) against asexual blood stage Plasmodium falciparum ,using a nano luciferase reporter read-out” (2022)
Values joined by “and” are separate entries in the source; they are usually repeats but may differ in a detail not shown here. Equal entries are not always repeated. Out of some 150,000 compounds screened, about 540 (0.36%) showed an effect of 50% or more. This is one part of the list.

System: Plasmodium falciparum
Test: Primary screen in NF54 nanoGlo assay, in single point, at 2uM, 72h; a lower Z score goes with more inhibition
Format: functional, Erythrocyte
Settings: timepoint 72 hour

SMILES | % Inhibition [%] | Z score | % Inhibition (2 µM) | Z score (2 µM)
Cc1cc(Br)ccc1C(=O)NC[C@H](C)O | -7 | 0.78 |  | 
COc1cccc(Cn2c(=O)c(C(=O)Nc3ccc(F)cc3)nn(-c3cccc(OC)c3)c2=O)c1 | -9 | 0.89 |  | 
COc1ccc(F)cc1C(NC(=O)CCCn1cnnn1)[C@H]1C[C@H](O)C1 (stereo not given in full) | -12 | 1.45 |  | 
COc1cc2c(cc1OC)CN1C(=O)N(CCC(=O)Nc3cccc(Cl)c3)C(=O)[C@@H]1C2 | -1 | 0.09 |  | 
Clc1ccccc1COc1ccccc1-c1nc2c([nH]1)CCNC2 | -5 | 0.93 |  | 
CC1(C)CCN(CCNC(=O)Cc2ccc(-n3ccnc3)cc2)C1 | -2 | 0.21 |  | 
Cc1c(Cl)cccc1S(=O)(=O)N1CCC[C@H](c2ccn(C)n2)C1 | -7 | 0.77 |  | 
Nc1cc(-c2cccc(C(=O)NCCCN3CCCC3=O)c2)nc(N)n1 | -11 | 1.35 |  | 
CCN(CC)c1ncnc2c(-c3ccccc3)cn(CC(=O)N3CCCCC3)c12 | 15 | -2.25 |  | 
O=C(c1ccccc1)[C@H]1CCCN(C(=O)CCn2nnc3ccccc32)C1 | 0 | -0.02 |  | 
CCC(CC)[C@H]1CCN(S(=O)(=O)CC2CCOCC2)C1 | 10 | -1.12 |  | 
COc1c(C)cnc(Cn2cc(C#N)cn2)c1C | -1 | 0.15 |  | 
CCc1nc(C)c(C(=O)NCc2cnc3c(c2)CCC3)o1 | -8 | 1 |  | 
CNC(=O)c1ccc(CN2CCC[C@@](CO)(CC3CC3)C2)o1 | -21 | 2.07 |  | 
CCOc1cncc(NCCn2ccnc2)n1 | 25 | -2.8 |  | 
CCCCCNC(=O)Nc1nnc(C)s1 | 0 | 0.09 |  | 
Cc1cc(C)cc(N2C(=O)C3N=NN(c4ccc(F)cc4)C3C2=O)c1 (stereo not given) | 8 | -0.91 |  | 
Cc1cc(O)cc(=O)n1C[C@H](O)c1ccc(O)cc1 | -3 | 0.42 |  | 
CC(C)c1[nH]ccc1C(=O)N1CC(O)(C(F)F)C1 | -2 | 0.35 |  | 
COCCCNC(=O)c1c(C)oc2c1CN(Cc1cccc(F)c1)CC2 | -6 | 0.56 |  | 
CC(=O)N1CCc2cc(S(=O)(=O)N3CCCC3)ccc21 | -13 | 2.38 |  | 
COc1cncc(C(Nc2nc3cc(C)ccc3o2)[C@H]2C[C@@H](O)C2)c1 (stereo not given in full) | -8 | 1.51 |  | 

SMILES | % Inhibition [%] | Z score | % Inhibition (2 µM) | Z score (2 µM)
O=C(c1ccc[nH]1)N(CCCn1ccnc1)Cc1cccnc1 | -7 | 0.94 |  | 
COc1cccc(-c2nn(-c3nc(-c4ccco4)cc(C(F)(F)F)n3)c(-c3cccc(OC)c3)c2C)c1 | -3 | 0.42 |  | 
Cc1nc(-c2cc(NCc3ccccn3)nc3[nH]ccc23)cc(C(C)C)n1 | -3 | 0.33 |  | 
COc1ccc(-c2cnnn2-c2cc(OC)c3c(c2OC)OCO3)cc1 | -4 | 0.65 |  | 
NC(=O)C1(O)CCN(C(=O)c2cc(-c3ccccc3)ccc2Cl)CC1 | 0 | -0.04 |  | 
Cc1cncc(NC(=O)C(=O)NC[C@@H]2CCCN2CC(C)C)c1 | -11 | 1.78 |  | 
CC[C@H](OC1CCCC1)C(=O)NCCC1CCN(C)CC1 | -11 | 2.02 |  | 
CC(C)(O)C#Cc1ccc(CN2CCN(Cc3ccsc3)[C@@H](CCO)C2)s1 | -10 | 1.93 |  | 
O=C(NCC1(N2CCCCC2)CCOCC1)c1csc(Cl)c1 | -3 | 0.33 |  | 
CC(C)(O)c1nc2ccccc2n1C[C@H]1CC1(Cl)Cl | 4 | -0.55 |  | 
CCN(CC(=O)N1CCN(c2ccc(-c3ccc(Cl)cc3Cl)nn2)CC1)C(=O)C1CCC1 | -6 | 0.74 |  | 
CCN(C)C(=O)CNC(=O)c1sc(-c2c(C)noc2C)nc1C | -10 | 1.32 |  | 
CCCS(=O)(=O)N1CC[C@H](Cc2ncc(C)n2Cc2ccccc2)C1 | -16 | 1.95 |  | 
CCN(CC)c1onc(-c2ccccc2)c1CN(CCN1CCOCC1)C(=O)C(C)C | 10 | -1.26 |  | 
CCCN(CCC)c1ncnc2c1c(-c1ccccc1)cn2-c1ccccc1 | -12 | 1.46 |  | 
O=C(NCc1ccccc1Cl)c1nc(-c2cn(-c3cccc(F)c3)nn2)no1 | -5 | 1.07 |  | 
CCCc1ccc(CN2CC[C@](C)(O)[C@H](C)C2)o1 | 1 | -0.12 |  | 
CC(=O)N1CCN(C(=O)N[C@@H](C)c2ccccc2)CCC12CCOCC2 | -1 | 0.12 |  | 
CNC(=O)C1CCCC1NC(=O)Nc1ccnnc1C (stereo not given) | -40 | 4.74 |  | 
COc1ccccc1-c1n[nH]c(C)c1NC(=O)c1c(F)cccc1F | -3 | 0.44 |  | 
CCN(CC)CCOCCOc1c(C)cccc1C | -5 | 1.02 |  | 
Cc1noc(C)c1CC(=O)Nc1cccc(-c2ccc3c(c2)CCO3)n1 | -12 | 2.26 |  | 

SMILES | % Inhibition [%] | Z score | % Inhibition (2 µM) | Z score (2 µM)
Cc1nccn1CCN(C)C(=O)[C@@H]1COc2ccccc2C1 | 1 | -0.17 |  | 
N#C[C@@H]1C(=O)N=C(N2CCc3ccccc3C2)NC12CCCC2 | -5 | 0.6 |  | 
CN(C)C1(CNC(=O)c2ccccc2)CCCC1 | -4 | 0.4 |  | 
Cc1ccc(CN[C@@H]2CO[C@H](CNC(=O)c3ccccc3)[C@H]2O)cc1 | -10 | 1.54 |  | 
O=C(O)c1cccc(OCCN2CCCCC(C3CCOC3)C2)c1 (stereo not given) | -14 | 2.55 |  | 
Cn1nc(C(=O)N2CCN(c3nccn4nc5c(c34)CCCC5)CC2)ccc1=O | -10 | 2.06 |  | 
CC[C@@H](C(=O)N1CCC(Cc2ccccc2)CC1)N1CCN(Cc2ccc(F)cc2)C(=O)C1=O | 1 | -0.1 |  | 
Cc1cc(C(=O)N2CCCCC[C@H]2c2cc(C(F)(F)F)nn2C)on1 | -14 | 1.2 |  | 
COCCn1c([C@H](C)NC(=O)c2cc(F)ccc2-n2cnnn2)nc2ccccc21 | 3 | -0.38 |  | 
CC(C)NC(=O)N[C@H]1C[C@@H](Cc2cc(-c3ccccc3)on2)C1(C)C | -7 | 1.16 |  | 
CC(CNC(=O)N1C[C@@H](O)C[C@H]1CO)c1c(Cl)cccc1Cl (stereo not given in full) | -5 | 0.69 |  | 
OC[C@H]1CCCCN1CCNCc1ccc(F)cc1F | -15 | 1.56 |  | 
Cc1ccc(C(=O)N[C@@H]2COC3(CCCC3)C2)c(=O)[nH]1 | -11 | 0.99 |  | 
CCOC(=O)C1(Cc2ccc(Cl)cc2)CCN(Cc2[nH]cnc2C)CC1 | -1 | 0.12 |  | 
O=C(Nn1c(-c2ccccc2)nc2ccccc2c1=O)c1ccco1 | -18 | 2.64 |  | 
O=C(NCc1ccc(OC(F)F)cc1)C1CC2CCC1C2 (stereo not given) | -3 | 0.6 |  | 
CC(C)[C@H]1CCO[C@H]1C(=O)NCc1cccc(-c2ncc[nH]2)c1 | -13 | 2.05 |  | 
O=S(=O)(NCCCc1nnc2ccccn12)N1CCCCC1 | 10 | -1.35 |  | 
CO[C@@H](C)C(=O)N1CCC2(CCC(=O)N(CCc3c[nH]cn3)C2)CC1 | -2 | 0.34 |  | 
CCc1ccc(-c2n[nH]c(=O)c3c2CCCC3)cc1S(=O)(=O)N1CCN(Cc2ccccc2)CC1 | 7 | -0.87 |  | 
O=C(N1CCOCC1)N1CCCN(c2cccc(F)c2F)CC1 | -10 | 1.46 |  | 
CC(C)c1cc(C(=O)N2CCC3CCCCC32)nn1C (stereo not given) | -4 | 0.57 |  | 

SMILES | % Inhibition [%] | Z score | % Inhibition (2 µM) | Z score (2 µM)
O=C(NCCCc1cnc2ncnn2c1)c1ccoc1 | -5 | 0.96 |  | 
NC1CCC(C(=O)N2CCOC(c3cc(F)c(Cl)cc3Cl)C2)C1 (stereo not given) | -18 | 2.47 |  | 
CC(C)(C)N(Cc1ccccn1)C(=O)c1ccc(F)cn1 | -11 | 1.46 |  | 
CCOc1cccc(CNC(=O)c2cn3c(n2)CN(CC)CC3)c1 | -2 | 0.33 |  | 
Cc1csc(NC(=O)c2ccc(-n3cccn3)nn2)n1 | -5 | 1.01 |  | 
O=C(CNCc1cccc(Cl)c1)N1CCc2ccccc2C1 | -8 | 0.79 |  | 
CNC(=O)c1cnc(C=Cc2csc(-c3ccco3)n2)s1 | -14 | 2.22 |  | 
CCn1c(=O)sc2cc(NC(=O)c3ccc(C)cc3)ccc21 | 5 | -0.91 |  | 
CCCc1nnsc1C(=O)NC1CCCC(OC(=O)Nc2ccccc2)C1 (stereo not given) | -7 | 1.28 |  | 
COc1cnc(N2CCC3(CC2)[C@H](O)C[C@@H]3OCCO)nc1 | 1 | -0.25 |  | 
C=C[C@H]1CCN(C(=O)c2n[nH]c(=O)c3ccccc23)C1 | -11 | 2.34 |  | 
Cc1cnc(NC(=O)N2CCC3CCC(C2)N3C(C)C)s1 (stereo not given) | -5 | 0.67 |  | 
CCCC1(C)C(=O)NCCN1C(=O)CC1CCCCO1 (stereo not given) | -13 | 1.14 |  | 
Cc1nn(Cc2ccccc2)c(Cl)c1C(=O)NCC1(c2ccc(Cl)cc2)CCOCC1 | 2 | -0.29 |  | 
C#CCN(C(=O)NC(C)(C)C)C1CCCC1 | -2 | 0.28 |  | 
Cc1cc(C)nc(N/C(=N/c2ccccc2)NC(=N)NC(=O)c2ccccc2)n1 |  |  | -10% and -5% | 1.08 and 0.81
COc1ccc(NC(=O)c2ccc(COc3ccc4c(c3)[C@H](c3ccc(F)cc3)N(C(=O)C(C)C)CC4)o2)cc1 | -11 | 1.9 |  | 
Cc1n[nH]c(C)c1CC(=O)NC1CCCC(c2ccccc2)C1 (stereo not given) | 1 | -0.18 |  | 
COc1ccc(Cl)cc1C1(CNC(=O)N2C[C@H](C)OC(C)(C)C2)CCOCC1 | -7 | 1.22 |  | 
